# Measured values from the supplement of paper PMC12217912.
# Some of the results follow. The full chains were built here from the parent and the listed change. Values near 0.05 are background.
# B1: TEV protease; numbered along this chain (parent)
# chain: MGESLFKGPRDYNPISSSICHLTNESDGHTTSLYGIGFGPFIITNKHLFRRNNGTLVVQSLHGVFKVKDTTTLQQHLVDGRDMIIIRMPKDFPPFPQKLKFREPQREERICLVTTNFQTKSMSSMVSDTSCTFPSGDGIFWKHWIQTKDGQCGSPLVSTRDGFIVGIHSASNFTNTNNYFTSVPKNFMELLTNQEAQQWVSGWRLNADSVLWGGHKVFMVKPEEPFQPVKEATQL
# Variants of: B1
# Assay: raw area under fraction-flipped curve 0-4 h after induction (AUC4h, not background-subtracted), DNA-recorder readout of cleavage of the substrate (dimensionless); higher = more cleavage of the substrate by the protease variant
# Conditions: temperature: 34 °C; time window: 0-4 h after rhamnose induction
# Description: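 In vivo DNA recorder in E. coli TOP10(DE3) ΔrhaA at 34 °C. Each TEVp single-site mutant (parent TEVp 0) is paired with a single-site variant of the 7-mer TEVs (canonical ENLYFQ|S). The substrate sits between flexible linkers in a Bxb1-sfGFP-TEVs-SsrA fusion, so cleavage stabilises Bxb1 and speeds flipping of a recombination array, read by NGS. The value is the raw area under the fraction-flipped curve over 0-4 h after rhamnose induction (AUC4h), with ≥20 reads per time point. It is not background-subtracted; inactive controls average about 0.047.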
# 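Also: Bxb1 expression induced with 0.2% (w/v) L-rhamnose at OD600 near 0.5, cultures sampled hourly, flipped fraction per protease–substrate barcode pair counted by paired-end Illumina sequencing.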
Variant,area with substrate ENLYFCS,area with substrate ENLYFES,area with substrate ENLYFFS,area with substrate ENLYFHS,area with substrate ENLYFIS,area with substrate ENLYFKS,area with substrate ENLYFLS,area with substrate ENLYFMS,area with substrate ENLYFNS,area with substrate ENLYFPS,area with substrate ENLYFSS,area with substrate ENLYFVS,area with substrate ENLYFWS,area with substrate ENLYFYS,area with substrate ENLYFDS,area with substrate ENLYFTS,area with substrate ENLYFGS,area with substrate ENLYFRS
MGESLFKGPRDYNPISSSICHLTNESDGHTTSLYGIGFGYFIITNKHLFRRNNGTLVVQSLHGVFKVKDTTTLQQHLVDGRDMIIIRMPKDFPPFPQKLKFREPQREERICLVTTNFQTKSMSSMVSDTSCTFPSGDGIFWKHWIQTKDGQCGSPLVSTRDGFIVGIHSASNFTNTNNYFTSVPKNFMELLTNQEAQQWVSGWRLNADSVLWGGHKVFMVKPEEPFQPVKEATQL [P40Y],0.0771,0.0635,0.0866,0.0506,0.0546,0.0591,0.0595,0.0634,0.0588,0.0643,0.053,0.0949,0.0557,0.056,,,,
MGESLFKGPRDYNPISSSICHLTNESDGHTTSLYGIGFGPTIITNKHLFRRNNGTLVVQSLHGVFKVKDTTTLQQHLVDGRDMIIIRMPKDFPPFPQKLKFREPQREERICLVTTNFQTKSMSSMVSDTSCTFPSGDGIFWKHWIQTKDGQCGSPLVSTRDGFIVGIHSASNFTNTNNYFTSVPKNFMELLTNQEAQQWVSGWRLNADSVLWGGHKVFMVKPEEPFQPVKEATQL [F41T],0.0577,,0.106,0.0595,0.0547,,,0.0586,0.0587,0.0567,0.0549,,0.0468,,0.0665,0.0509,,
MGESLFKGPRDYNPISSSICHLTNESDGHTTSLYGIGFGPFIITFKHLFRRNNGTLVVQSLHGVFKVKDTTTLQQHLVDGRDMIIIRMPKDFPPFPQKLKFREPQREERICLVTTNFQTKSMSSMVSDTSCTFPSGDGIFWKHWIQTKDGQCGSPLVSTRDGFIVGIHSASNFTNTNNYFTSVPKNFMELLTNQEAQQWVSGWRLNADSVLWGGHKVFMVKPEEPFQPVKEATQL [N45F],0.0517,0.0662,0.0721,0.0604,0.0624,,0.0641,0.0601,0.0651,0.0655,,0.0707,0.0605,0.0508,0.0581,0.0566,0.0537,0.0625
MGESLFKGPRDYNPISSSICHLTNESDGHTTSLYGIGFGPFIITMKHLFRRNNGTLVVQSLHGVFKVKDTTTLQQHLVDGRDMIIIRMPKDFPPFPQKLKFREPQREERICLVTTNFQTKSMSSMVSDTSCTFPSGDGIFWKHWIQTKDGQCGSPLVSTRDGFIVGIHSASNFTNTNNYFTSVPKNFMELLTNQEAQQWVSGWRLNADSVLWGGHKVFMVKPEEPFQPVKEATQL [N45M],0.0547,0.0567,0.0702,,0.0587,0.0476,0.0642,0.0718,0.0428,0.0673,0.0572,0.0759,0.053,0.07,0.0646,,,0.0495
MGESLFKGPRDYNPISSSICHLTNESDGHTTSLYGIGFGPFIITNKHLFRKNNGTLVVQSLHGVFKVKDTTTLQQHLVDGRDMIIIRMPKDFPPFPQKLKFREPQREERICLVTTNFQTKSMSSMVSDTSCTFPSGDGIFWKHWIQTKDGQCGSPLVSTRDGFIVGIHSASNFTNTNNYFTSVPKNFMELLTNQEAQQWVSGWRLNADSVLWGGHKVFMVKPEEPFQPVKEATQL [R51K],0.0344,0.0549,0.0732,0.061,0.0551,,,,,0.0576,,0.0454,0.0683,,0.0482,0.0542,,
